Assay results published in article PMC4336329 (PLoS ONE, 2015).
Screen size: about 310,000 compounds; about 14,000 (4.5%) showed an effect of 50% or more. Effects have a minus sign here. The list shows a part of the results.

Target: human ether-à-go-go-related gene (hERG) potassium channel (human, UniProt Q12809)
Test: primary screen, population patch clamp on CHO cells stably expressing hERG
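Further: peak tail current of the secondary pulse compared with the same well before compound.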

Sequence of human ether-à-go-go-related gene (hERG) potassium channel (Q12809 whole entry, looked up): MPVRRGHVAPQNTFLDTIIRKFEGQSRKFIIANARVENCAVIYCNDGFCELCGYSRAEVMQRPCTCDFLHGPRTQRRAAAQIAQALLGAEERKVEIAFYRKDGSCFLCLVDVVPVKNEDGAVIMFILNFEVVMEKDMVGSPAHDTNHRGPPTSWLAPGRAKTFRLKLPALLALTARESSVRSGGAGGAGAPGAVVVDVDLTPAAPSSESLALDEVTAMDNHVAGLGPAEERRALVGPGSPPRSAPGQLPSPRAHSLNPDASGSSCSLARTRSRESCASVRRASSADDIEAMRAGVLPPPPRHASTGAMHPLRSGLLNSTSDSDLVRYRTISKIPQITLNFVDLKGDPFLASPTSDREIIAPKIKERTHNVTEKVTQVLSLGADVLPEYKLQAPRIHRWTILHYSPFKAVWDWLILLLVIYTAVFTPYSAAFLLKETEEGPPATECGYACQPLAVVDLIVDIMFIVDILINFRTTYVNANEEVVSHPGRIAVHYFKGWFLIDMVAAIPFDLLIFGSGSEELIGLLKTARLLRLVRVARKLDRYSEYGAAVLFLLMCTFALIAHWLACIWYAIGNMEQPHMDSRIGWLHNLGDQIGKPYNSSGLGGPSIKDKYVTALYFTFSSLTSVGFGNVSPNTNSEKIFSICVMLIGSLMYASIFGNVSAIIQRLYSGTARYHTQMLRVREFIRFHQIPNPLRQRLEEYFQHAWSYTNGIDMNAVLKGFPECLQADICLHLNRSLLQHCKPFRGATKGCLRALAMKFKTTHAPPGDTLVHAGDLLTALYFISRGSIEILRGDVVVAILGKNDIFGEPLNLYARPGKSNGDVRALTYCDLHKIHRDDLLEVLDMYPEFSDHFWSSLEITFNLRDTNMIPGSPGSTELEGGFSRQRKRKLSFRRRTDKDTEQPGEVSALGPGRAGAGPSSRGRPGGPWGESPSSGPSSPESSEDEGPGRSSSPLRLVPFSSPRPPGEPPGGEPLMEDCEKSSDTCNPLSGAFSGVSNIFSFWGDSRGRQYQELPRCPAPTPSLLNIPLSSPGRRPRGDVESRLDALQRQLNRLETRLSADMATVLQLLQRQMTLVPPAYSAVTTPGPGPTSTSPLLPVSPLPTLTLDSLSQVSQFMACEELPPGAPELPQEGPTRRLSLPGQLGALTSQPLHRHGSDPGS

Compound | hERG current change (%, negative = inhibition) at 10uM
COc1ccc(S(=O)(=O)N2CCCCCC2)cc1NC(=O)CN1C(=O)NC(C)(c2ccc(C)cc2)C1=O (stereo not shown) | -12.8%
O=C(NCc1ccco1)C(c1ccncc1)N(C(=O)Cn1nnc2ccccc21)c1ccccc1F (stereo not shown) | -4.14%
Cc1ccc(-c2c[n+](Cc3ccc(Cl)c(Cl)c3)c3n2CCC3)cc1.[Cl-] | -68.9%
COc1ccc(S(=O)(=O)N2CCN(CCc3ccccc3)CC2)cc1 | 5.3%
Cc1ccc(C2=NN(CCC(=O)NCc3ccc4c(c3)OCO4)C(=O)CC2)cc1 | -69.7%
O=C1CCCN1CCCNc1ncnc2c1[nH]c1ccccc12 | 13%
COc1ccc(CCC(=O)Nc2nccs2)cc1OC | 4.3%
COc1cc(CC(=O)Nc2ccc(S(=O)(=O)N(C)C)cc2)cc(OC)c1OC | 0.00448%
O=C(Nc1ccc2c(c1)CCCN2C(=O)c1ccccc1)c1ccccc1 | -29%
Cc1cc(C)n(-c2nc3ccccc3nc2N2CCN(S(=O)(=O)c3ccc(F)c(C)c3)CC2)n1 | 9.54%
CON(C)c1nc(OCCNC(=O)COc2ccc(Cl)cc2C)nc(N(C)C)n1 | -12.7%
Cc1ccc2cc(CN(C)S(C)(=O)=O)c(=O)[nH]c2c1 | 26.9%
Cc1ccc(NC(=O)CC2=NC(=O)C(CC(=O)Nc3ccccc3F)S2)cc1 (stereo not shown) | 16.9%
COc1ccc(C(C)=O)cc1CSc1nnc(Nc2ccc(C)cc2C)s1 | 6.51%
CCOc1ncccc1C(=O)OCC(=O)Nc1ccc(C)c(S(=O)(=O)N2CCOCC2)c1 | -27%
COCCn1c(C)cc(C(=O)COC(=O)CNC(=O)c2ccco2)c1C | 11%
CN(C)/C=N/c1c(C#N)cnn1-c1ncnc2sc(-c3ccccc3)cc12 | -26%
CC(c1ccc(O)cc1)(c1ccc(O)cc1)c1ccc(CCBr)cc1 | 10.3%
Cc1cc(C(=O)NCC(=O)OCC(=O)N(C)C2CCCCC2)ccc1[N+](=O)[O-] | -0.454%
Cc1cc(C(=O)N2CCN(S(=O)(=O)c3ccc(F)c(Cl)c3)CC2)c(C)o1 | -43.6%
COc1ccc(CCNC(=O)COC(=O)c2ccc(C)s2)cc1OC | 12.1%
Cc1nn(Cc2ccccc2Cl)c(Cl)c1C(=O)OCC(=O)NCc1ccco1 | 11.9%
Nn1c(SCc2ccc(F)cc2)nnc1-c1cccnc1 | -5.26%
Cc1ccnc(NC(=O)c2ccc(S(=O)(=O)N3CCCC3)cc2)c1 | -16%
Cc1cc(S(=O)(=O)NCc2cccs2)ccc1-n1cnnn1 | -0.232%
Cc1ccc(CCNC(=O)C2CC(c3cc(C(F)(F)F)cc(C(F)(F)F)c3)=NO2)cc1 (stereo not shown) | 9.4%
CCn1cc(C(=O)N[C@H](C(=O)NCCO)C(C)C)c(=O)c2cc3c(cc21)OCO3 | 13.2%
O=C(NNC(=O)C1C2C=CC(C2)C1C(=O)O)c1ccccc1O (stereo not shown) | 5.46%

Compound | hERG current change (%, negative = inhibition) at 10uM
CC1=C/C(=C(\c2ccc(O)c(C)c2)c2ccccc2S(=O)(=O)O)C=CC1=O | 26.3%
COc1ccc(CCN2C(=O)CS/C2=N\NC(=O)c2ccc(C(C)(C)C)cc2)cc1OC | 11.3%
O=C1/C(=C/c2ccccc2)Nc2ccccc21 | 2.99%
Br.CC(=O)NNc1nc(-c2ccc(C)cc2)cs1 | 17.1%
CC(/C=C1\SC(=S)N(C(C(=O)O)c2ccccc2)C1=O)=C\c1ccccc1 (stereo not shown) | 6.23%
Cc1ccc(C(=O)Nc2nnc(C3=COCCO3)o2)cc1C | -16.3%
CCOC(=O)c1c(C)[nH]c(C(=O)/C(C#N)=C/c2ccc(OC)c(OC)c2)c1C | 9.5%
CCn1c(C)c(C)c2cc(C(=O)NCCCN3CCN(C)CC3)ccc21 | 15.5%
CCC1CCCCN1C(=O)c1c(-c2ccccc2)noc1C (stereo not shown) | 3.53%
Cc1cc(C(=O)CSc2nn3c(=O)c(C(C)(C)C)nnc3s2)c(C)n1C | 9.61%
O=C1CCCC2=C1C(c1cccs1)Nc1ccccc1N2 (stereo not shown) | 9.43%
CC(C)OC(=O)Nc1ccc2c(c1)N(C(=O)CCN1CCN(CCO)CC1)c1ccccc1CC2.Cl.O | 7.07%
Cc1ccc(C)n1-c1ccc(C(=O)N/N=C/c2ccncc2)cc1 | -18.5%
Cc1ccsc1/C=N/N=C1\C(=O)Nc2ccccc21 | 7.87%
Cc1cc(C)n(C(=O)/C(C#N)=N/Nc2cc(Cl)cc(Cl)c2)n1 | 11.3%
CCC(C)(C)NC(=O)C(c1cccs1)N(C(=O)c1ccn[nH]1)c1ccccc1 (stereo not shown) | -19.9%
Cc1ccc(C)c(OCc2cc(C(=O)N3CCNC(=O)C3)no2)c1 | 10.4%
CCOC(=O)N1CCC(N2CCCC(CO)(Cc3ccccc3C)C2)CC1 (stereo not shown) | 0.621%
COc1ccc(CC(=O)NNc2ncnc3c2cnn3-c2ccc(C)cc2)cc1 | -1.17%
O=C(Nc1ccc2[nH]c(=O)[nH]c2c1)Nc1ccc(F)cc1F | 8.6%
O=C(CCN1C(=O)c2ccc([N+](=O)[O-])cc2C1=O)Nc1nccs1 | 6.76%
O=C(OCC(=O)N1CCCC1)c1ccc(OC(F)(F)F)cc1 | -3.51%
O=C(Nc1ccc(F)cc1)NC1CCN(Cc2ccccc2)CC1 | -36.7%
COc1ccc([N+](=O)[O-])cc1CSc1nnc(NC(C)=O)s1 | 0.29%
COc1cccc(CNc2nc(SC)ncc2CO)c1 | 14.5%
CCOc1ccc(N2C(=O)CS/C2=N/NC(=O)COc2ccc3ccccc3c2)cc1 | -6.99%
Cc1ccccc1OCC(=O)Nc1nc2ccccc2[nH]1 | 13.1%
